ChEMBL document CHEMBL1157539, “Thousands of chemical starting points for antimalarial lead identification” (Nature, 2010)
Over roughly 13,000 compounds, “IFI” has its median near 4; the highest 2% begin near 17. The list shows a part of the results.

Experiment: GSK_TCMDC: Inhibition Frequency Index (IFI). The number of non-kinase HTS assays where a compound showed > 50 % inhibition, expressed as a percentage of the number of such assays in which the compound was tested (-0 is zero)
Type: functional

SMILES	IFI [%]
Cc1cc(O)c(CN(C)Cc2ccc3c(c2)OCCO3)cc1C(C)C	2
COc1ccc(Cl)cc1N1CCN(CCCNC(=O)c2ccc(-c3nc4cc(Cl)c(F)cc4[nH]3)cc2)CC1	0.72
CCc1cc(NCc2ccncc2)nc(Nc2ccc(F)cc2)n1	1.39
CN(C)CCN(C)Cc1ccc(-c2ccc3c(Nc4ccc(Cl)cc4F)ccnc3c2)o1	6.67
CCn1c(SCC(=O)Nc2cc(C(F)(F)F)ccc2Cl)nc2ccccc2c1=O	3.66
Cc1[nH]c(C)c(-c2ccc(OCCCc3ccccn3)cc2)c(=O)c1Br	-0
Nc1nc(N)c2cc(Sc3ccc4ccccc4c3)ccc2n1	2.48
CCNC(=O)Nc1cccc(-c2cccc(-c3nc4cccc(C)c4[nH]3)c2)c1	5.05
Cc1ccc2c(N/N=C/c3cccc([N+](=O)[O-])c3)cc(C)nc2c1	5.19
Cc1cc(Nc2ccc(OCc3ccccc3Cl)cc2)c2cc(Cl)ccc2n1	6.38
O=C(O)C[C@H](NC(=O)c1cc(-c2ccc3c(c2)OCO3)no1)C(=O)O.O=C(O)C[C@H](NC(=O)c1conc1-c1ccc2c(c1)OCO2)C(=O)O	0
CCN(CC)CCCC(C)Nc1c(-c2ccc(C)cc2)cnc2ccccc12 (stereo not given)	1.45
Cc1ccccc1C1CCN(C2CCC(NC(=O)/C=C/c3ccc(C#N)cc3)CC2)CC1 (stereo not given)	8.62
O=C(Nc1ccc2c(c1)CCNCC2)c1ccc(-c2ccc(Cl)cc2)cc1	9.66
COC(=O)c1ccc(CN2CCC(N(Cc3cccc(Oc4ccccc4)c3)S(=O)(=O)c3ccc(NC(C)=O)cc3)CC2)cc1	0.72
CCOc1c(Br)cc(C)cc1CNCCCNc1nc2ccccc2[nH]1	3.5
O=C(Nc1cccc(CN2CCN(C(=O)c3cccc(Cl)c3)CC2)c1)c1cccs1	6.15
Clc1ccccc1CCNCC1CCN(CC2CCCCC2)CC1	2.17
COc1cccc(-c2ccc(C(=O)NCC3CCCN(Cc4cccc(C(F)(F)F)c4)C3)s2)c1 (stereo not given)	5.45
COc1cc(C(=O)NC2CC(C)(C)N(C)C(C)(C)C2)ccc1-c1nc2cc(Cl)c(Cl)cc2[nH]1	9.3
CCCN(CCC)C(=O)c1cc(C(=O)N[C@@H](Cc2ccccc2)[C@H](O)CNC(C)(C)c2cccc(OC)c2)cc(N2CCCCS2(=O)=O)c1	3.62
FC(F)(F)c1cccc(Nc2nc3ccccc3nc2Nc2cccc(C(F)(F)F)c2)c1	10
O=C(Nc1cccc(-c2ccc(CN3CCCC3)cc2)c1)c1ccc(Cl)cc1	2.88

SMILES	IFI [%]
COc1ccc2c(c1)nc(CNC(=N)N)n2Cc1ccc(Cl)cc1	2.17
O=C(Nc1ccc(Cn2ncc(N3CCCNCC3)c(Cl)c2=O)cc1)Nc1ccc(OCc2ccccc2)cc1	10.3
CCc1cc(=O)[nH]c(-n2nc(C)cc2NC(=O)CC(c2ccccc2)c2ccccc2)n1	10.4
CCc1nnc2sc(-c3cccc(NC(=O)c4ccc(C)c([N+](=O)[O-])c4)c3)nn12	3.45
CCc1ccc(-c2cnc(N)c3cc(-c4ccnc(N)n4)ccc23)cc1	2.17
COc1cc(CC2c3cc(O)c(Cl)cc3CCN2C)c(OC)cc1C (stereo not given)	2.13
O=C(/C=C/c1ccc(Cl)c(Cl)c1)NCCCCCN1CCC(C(=O)Nc2cccc(Cl)c2)CC1	13.5
CCC(CC)C(CC(=O)NC(C)(C)CCc1ccccc1OC)Nc1ccc(C#N)c2ccccc12 (stereo not given)	0.95
Cc1nc(-c2cccc(NC(C)C(=O)Nc3cc(C(F)(F)F)ccc3N3CCOCC3)c2)cs1 (stereo not given)	-0
COc1cc(CNC[C@@H](O)[C@H](Cc2ccccc2)NC(=O)c2cc(OC(C)C)cc(N3CCCCS3(=O)=O)c2)cc(OC)c1	3.76
Cc1ccc(Cn2c(N3CCC(C(=O)NCc4ccccn4)CC3)nc3ccccc32)cc1	1.08
CC(C)NCc1cccc(-c2ccc(NS(=O)(=O)c3cccc4cccnc34)cc2)c1	7.69
O=C(/C=C/c1ccc(Cl)c(Cl)c1)NC1CCC(CN2CCC(c3coc4ccccc34)CC2)CC1 (stereo not given)	4.93
CCOCCCn1c(=N)c(C(=O)NC(C)c2ccccc2)cc2c(=O)n3cccc(C)c3nc21 (stereo not given)	1.69
CN(C)Cc1cccc(-c2cc3c(-c4cnn(C)c4)c(Cl)cnc3[nH]2)c1	22.2
CCCCCCc1cc2cc(-c3csc(C=Cc4ccccc4)n3)c(=O)oc2cc1O	2.04
Cc1ccc(C(C)C)cc1CON1C(=N)N=C(N)NC1(C)C	6.25
ON=C(c1nc2ccccc2[nH]1)c1nc2ccccc2[nH]1	7.09
CCN(C(=O)c1ccc(NC(=O)c2cccs2)cc1)c1nc2c(C)cccc2s1	3.37
CC(C)(CNCc1ccc(Cl)c(Cl)c1)c1nc(-c2ccc(Cl)c(O)c2)c(-c2ccncc2)[nH]1	9.93
Cc1ccccc1C1CCN(C2CCC(NC(=O)c3ccc(-c4cccs4)s3)CC2)CC1 (stereo not given)	8.77
N#Cc1cccc(C(=O)Nc2cccc(-c3ccc(CN4CCCC4)cc3)c2)c1	1.96
N#Cc1cncc(-c2nc3c(N4CCN(c5cnccn5)CC4)cccc3n2CCNCc2ccccc2)c1	-0

SMILES	IFI [%]
Cn1ncc2c3c(CCN4CCC(NCc5ccc6c(c5)NC(=O)CO6)CC4)c(Cl)cnc3ccc21	4.29
O=c1cc(NCCC(CNCc2cc3ccccc3o2)NCc2cc(Br)cc(Br)c2)[nH]c2ccccc12 (stereo not given)	8.03
O=C(Nc1ccc(-c2cccc(-c3nc4cc(C(F)(F)F)ccc4[nH]3)c2)cc1)c1ccc(=O)[nH]n1	1.79
CC(C)(C)c1ccc(CN2CCC(NC(=O)c3ccc(-c4ccccc4F)s3)CC2)cc1	12.3
Cc1cc(O)c(CN(C)Cc2ccc3c(c2)OCO3)cc1C(C)C	2.5
CNC(=O)c1cnc(Nc2ccc(OCC(O)CN(C)C)cc2)nc1Nc1cccc(OC(C)C)c1 (stereo not given)	3.01
O=C(Nc1ccc(N2CCCCC2)c(Cl)c1)c1nc[nH]n1	1.61
CC(C)OC(=O)c1ccccc1S(N)(=O)=O	0.77
CCc1ccc(S(=O)(=O)Nc2ccc(CCN(C)C3CCN(C)CC3)cc2)cc1	4.76
Cc1ccc(NC(=O)Nc2ccccc2F)cc1-c1ccc(C(=O)Nc2ccncc2)cc1	26.4
COc1ccc(CNC2Cc3ccccc3C2)cc1-c1ccc(S(=O)(=O)NCc2cccnc2)s1	5.56
c1cc(-c2ccc(CNC3CC3)cc2)cc(-c2nc3ccccc3[nH]2)c1	2.86
FC(F)(F)c1ccc2[nH]c(-c3ccc(-c4cccc(CN5CCN(CCN6CCOCC6)CC5)c4)cc3)nc2c1	5.63
O=C(Nc1ccc(SC(F)(F)F)cc1)Nc1ccc(Cl)c(Cl)c1	18.7
Cc1ccc2[nH]c(C)cc(=NN=Cc3ccccc3F)c2c1	6.47
COc1ccc2nccc(CCN3CC(O)C(CNCc4ccc5c(n4)NC(=O)CS5)C3)c2n1 (stereo not given)	4.85
O=C(NC12CC3CC(CC(C3)C1)C2)C(=O)c1c[nH]c2ccccc12	0.76
COc1ccc2nc(NC(N)=NC(=O)Nc3ccccc3)nc(C)c2c1	0.81
O=C(NCc1ccc(F)cc1)Nc1cccc(-c2ccc(-c3nc4cc(F)ccc4[nH]3)cc2)c1	4.92
COc1ccc(CC(=O)Nc2ccc(-c3cccc(-c4nc5cccc(C)c5[nH]4)c3)cc2)cc1O	3.51
Nc1ncc(-c2ccsc2)c2ccc(-c3cc(NCc4ccccc4)ncn3)cc12	3.13
Cn1nc(C(F)(F)F)c(-c2ccc(F)cc2)c1NC(=O)Nc1ccccc1	8.89
O=C(Cc1cccc(OCCCN(Cc2cccc(C(F)(F)F)c2Cl)CC(c2ccccc2)c2ccccc2)c1)NCc1ccco1	1.59

SMILES	IFI [%]
COc1ccc(Nc2ncc3c(-c4cccc(NC(=O)Cc5cccc(F)c5)c4)c[nH]c3n2)cc1OC	5.8
COc1ccc(Cn2c(Nc3cccc(C(F)(F)F)c3)nc3cc(C(=O)NCCN4CCCC4)cnc32)cc1Cl	3.73
c1cc(CN2CCCCC2)cc(-c2cccc(-c3nc4ccccc4[nH]3)c2)c1	2.82
Cc1ccc2nc(-c3ccc(C(=O)NC4CCN(Cc5ccccc5)CC4)cc3)[nH]c2c1C	2.16
COc1cc(NCCCNCc2cn(Cc3cc(Br)cc(Br)c3)c3ccccc23)nc2ccccc12	17.4
COc1ccc2nccc([C@@H](O)CN3CCC(NCc4cc5ccccc5[nH]4)CC3)c2c1	1.47
O=C(Nc1nc(-c2ccccn2)cc2ccccc12)c1cccc(Cl)c1	5.41
COc1ccc(Nc2nc(NCc3cccc(NS(C)(=O)=O)c3)cc(-c3ccc(OC)cc3)n2)cc1	1.56
COC(=O)c1cccc(CNCc2cccc(-c3ccc(-c4nc5ccccc5[nH]4)s3)c2)c1	1.9
Cc1nc(N)nc(N)c1-c1ccc(Br)c(Br)c1	4.62
COc1cc(NCC(O)CNc2cc(Cl)nc3ccccc23)nc2ccccc12 (stereo not given)	1.48
COc1ccc2nccc(N3CCC(NCCNCc4ccc5c(n4)NC(=O)CS5)C3)c2n1 (stereo not given)	3.52
CNC(=O)Cc1ccc(C(=O)Nc2cccc(-c3cccc(-c4nc5cc(C(F)(F)F)ccc5[nH]4)c3)c2)cc1	5.31
Fc1ccc2[nH]c(-c3ccc(-c4ccc(CNCCN5CCNCC5)cc4)cc3)nc2c1	11.9
Cn1nccc1C(=O)NCCNCc1cccc(-c2cccc(-c3nc4cc(F)ccc4[nH]3)c2)c1	6.86
c1cc(CNCC2CCCO2)cc(-c2cccc(-c3nc4ccccc4[nH]3)c2)c1 (stereo not given)	3
O=C(NCc1ccccc1)OC1CNCCC1c1ccc(C(O)Cc2ccccc2)cc1 (stereo not given)	1.54
O=C(O[C@H]1CN[C@H](C#Cc2cc3c(Nc4ccc(OCc5cccc(F)c5)c(Cl)c4)ncnc3s2)C1)N1CCCC1	2.14
COc1ccc(-c2ccc3c(-c4ccc(F)cc4)cnc(N)c3c2)cn1	1.4
CCCC[C@@H](C(=O)NCCc1ccc(Cl)cc1)N1C(=O)CCC1C(=O)Nc1ccc(Cl)c(Cl)c1 (stereo not given in full)	1.46
c1ccc(-c2[nH]c3ccccc3c2CN2CCC(N3CCCCC3)CC2)nc1	2.44
